# The other results are listed elsewhere or left out.
# System: PfSIP2 AP2 domain 1 (GST-tagged)
# Experiment: gcPBM binding intensity (ln(normalized median fluorescence intensity)); higher = stronger DNA binding
# In short: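 GST-fused DNA-binding domains of P. falciparum, expressed in E. coli, were applied at about 25 μg on average for 1 h to an Agilent 4 × 180k array of primer-extended double-stranded 36-bp intergenic genomic probes and negative controls. Binding intensity is the highest Masliner-normalised natural-log median intensity across replicate spots of either probe orientation, measured with Alexa488 anti-GST antibody and a 488 nm scan.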
row,Sequence,gcPBM binding intensity (ln)
1,TCCAGGCTACACTCTAGTACTCGTAGGGTTATGAGA [XGTACX_site4945],6.7
2,ATATATATATATATATGTACATATGTTAGGATCAAA [XGTACX_site8626],9.42
3,ATGACATATAAATATACACACATACGTAAGTATATT [CACACA_site5058],6.93
4,GTGGAATAATATATATGTACATATTTAAAATATTTA [XGTACX_site3499],7.05
5,AATGGTCTTTTCAACACACGTACATAAAAATATTAT [CACACA_site2571],7.52
6,TAAAAGTATATATATACACACATAAATATATCTGTA [CACACA_site4537],7
7,TGACAACATAGAGGGGCACACACATATATACATAAA [CACACA_site8550],7.54
8,ATTTTTTTACAAAAATGTACACATGAAATATGTAAT [XGTACX_site1372],7.28
9,TATTATTTTAGAATGCGTACTTATAAAATATTTTAT [XGTACX_site867],6.97
10,TTAAATTATTAGAGAGTGCATTATATATATTATACA [GTGCAC_site9711],8.84
11,GTGTGATGGTCCAATATACACACTTAAAAAAAAAAA [CACACA_site2426],6.93
12,TACTGTTATAAATGTGGTACTAATATTATACATATA [XGTACX_site5116],6.99
13,TACATATATATATTATGTACATAAGGTTTGAGTTCA [XGTACX_site2726],7.11
14,GAAAAAAAAGCTTGCACACGTATTTGCTTTATGTAT [CACACA_site4931],6.93
15,TTTTTGGTATTATTGTGTACTTATAAATAATATAAT [XGTACX_site4019],7.4
16,ATATTTTGTAACTATACACACATATTTATATTATAA [CACACA_site7433],6.97
17,ATATATATAAATAATTGTACATAATAATAAAATATA [XGTACX_site4839],7.41
18,ATATAAAATATTACGTGTACACATAAATAAAAATAA [XGTACX_site3746],7.49
19,CAAGTAGATATTATACGTACATATATATATATATAT [XGTACX_site8349],9.49

row,Sequence,gcPBM binding intensity (ln)
1,TTTTATACATATTTTACACACTAAAATATACCTATA [CACACA_site6286],7.26
2,TAAAAAATATACATTCGTACATATATATTATATATA [XGTACX_site7918],7.12
3,ATATATATATATATTACACACTTTTTCTTTTTTTTT [CACACA_site2780],9.47
4,AATAAACATAAATAAAAATTATAAAATATATATATG [CACACA_negctrl_site1709],6.97
5,TTTACATTTCAGTAGACACACAAAAAATAATACTAA [CACACA_site512],6.87
6,AAAAAAAAATATACATATATATATATATATATATAT [CACACA_negctrl_site1763],9.37
7,CAAAAGTAAGCACGCACACACAACATGAAATAAAAT [CACACA_site165],7.16
8,TATACACTTATTGGTGGTACAATATATAAATATATG [XGTACX_site3289],7.19
9,TTTTGATCTGAAGGAACCTAAAAAGGGAAGAGAAAA [CACACA_negctrl_site1656],6.93
10,TATATATATATTTATACACACACATATATTTATATA [CACACA_site8054],8.55
11,ATTAGTATAATGTAACTTAGTTAATAGTGCTAATAT [CACACA_negctrl_site764],7.35
12,TATATTTATAACAACACACACAGATCATAAAACTGC [CACACA_site7086],6.95
13,ACAAAATAAAACATCTGTACATATTATTATTATAAG [XGTACX_site4802],6.9
14,AAAAAAAAAAAAAAAACACACACATGCACATCATAT [CACACA_site8083],7.8
15,AAAAAAAACACGCGCACACACACACCCACCCACCGA [CACACA_site2206],7
16,CAATGTTAACATATTACACACATATGTATTTATAAC [CACACA_site7314],7.12
17,TAAATATATAATAAATGTACATATTAATATTATGGT [XGTACX_site1498],7.56
18,AAAAAAAATTTAATTGCACACAGGAAAATATAATTT [CACACA_site3810],7.01
19,TAAATACAGAGGAAAATACACACGTATATATATAAA [CACACA_site3410],6.78

row,Sequence,gcPBM binding intensity (ln)
1,TATAAATATACAAACACACATACAAACATATATATA [CACACA_site1120],7.27
2,TTAATACCCAGACACACACACACAAAATAAAATACA [CACACA_site7968],7.24
3,TTTTTTTAATGATATTGTACATTAATAAAAAATATG [XGTACX_site1719],7.06
4,ATTTGATATATAATAATACACACTTACATAATTAAT [CACACA_site290],6.93
5,TCTTTTTCAAGATGACGTACTTAGATTAATATAAAA [XGTACX_site3931],7.09
6,ATATGATCATTTTATCATTTTGCTTTTTCTTTTTTT [CACACA_negctrl_site1325],6.54
7,ATCGTGTTAAATGTTGTGCACATATAAATTACAAAA [GTGCAC_site9822],9.42
8,AATTTTGGAACGTGCACACATATGTAATATATATAT [CACACA_site3067],10.1
9,TTATATTCTTTTCTCTTTCTACTTTTTTTTTTTTTT [XGTACX_negctrl_site317],6.96
10,AAGAAAAACTTATATATATATATATATATATATATA [TGCATGCA_negctrl_site466],9.88
11,TCATACATGTATATGTGTACATATAATGTATATTCC [XGTACX_site6082],7.08
12,AAAAAAAAAAAAAAAAGTACAAAAAGAAGAAAAAAA [XGTACX_site6521],7.64
13,TTTTTTTTTTTTTTTTTTTTTTTATGTTCTTAAAAA [GTGCAC_negctrl_site62],6.98
14,AAAATATAGGTATGCACACACATATACTTCTGTGCA [CACACA_site1409],8.08
15,TTTTTTTTTTTTACGTGTACATAAATGTTAAGTAAT [XGTACX_site3901],7.11
16,TATAAATATTTATGTACACACATATACATGTTGAAT [CACACA_site5684],7.06
17,AGATATTATTTATATATTTATATATATATATAGATA [TGCATGCA_negctrl_site77],6.86
18,AGAGAAAAAAAAAATTGTACGTATGTAATAATATGC [XGTACX_site2981],7.08

# Source: the supplement of paper PMC11417369
